Whole data set: some 33,000 sequences, median “E-score (-0.5 to 0.5)” near -0.01, cut for the highest 2% near 0.26. The list shows a part of the results.
Each sequence was assayed against Ste12 (UniProt P13574) (assay: PBM E-score (8-mer binding enrichment) (E-score (-0.5 to 0.5)); higher = stronger / more preferred TF binding; most listed sequences are background and not binding sites). Conditions: protein concentration: 200 nM; construct: GST-DNA-binding domain.
Procedure, shortened: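 Universal all-10-mer Agilent arrays, double-stranded by primer extension on fresh or once-stripped slides, were probed with about 100-200 nM GST-tagged yeast transcription factors made by PURExpress. Fluorescent anti-GST detected bound protein, and masliner normalised the scans. E-scores from the Universal PBM Analysis Suite were given to each ungapped eight-base word pooled with its reverse complement.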

| Sequence | PBM E-score |
| --- | --- |
| AAGTAATA | 0.0885 |
| TCCTGAGA | 0.0959 |
| AGAGGATC | -0.23 |
| CCCAAAAA | 0.102 |
| TAATCGTA | 0.06 |
| ATCTTTAC | 0.128 |
| CAATACTG | 0.00586 |
| GATTCTGA | 0.0395 |
| CTTGCAGC | -0.116 |
| AACGTAAG | -0.0237 |
| ATCGGATG | 0.145 |
| GCGTACAC | -0.151 |
| AACTGACT | -0.195 |
| ATTAGATC | 0.0593 |
| GCAAGCTA | -0.19 |
| CACCTACA | -0.0138 |
| AGTATGTC | -0.00577 |
| GCCCAAAC | 0.0443 |
| GAAATATC | 0.0344 |
| AAGTCAGA | 0.0896 |
| CACGGTCA | 0.137 |
| AAGCTTGA | -0.0255 |
| ACCTACTC | 0.024 |
| AGCCGGCC | 0.0885 |
| ATAAGCTA | -0.0554 |

| Sequence | PBM E-score |
| --- | --- |
| CGCCAGTC | -0.0744 |
| ACTTGCAG | -0.0292 |
| CTTAACCC | -0.217 |
| ATTGCGTC | 0.0435 |
| CACCCAAC | -0.0687 |
| AACTTATG | 0.0251 |
| CGTAATTC | 0.0769 |
| TTGAAAAA | 0.323 |
| AAAGTCTT | 0.0182 |
| ACTCTACT | 0.123 |
| ACGACGAA | -0.0244 |
| AGAGAAGA | -0.0389 |
| CCCCCAGA | -0.226 |
| ACCTTGCA | -0.206 |
| CCGTGATC | 0.00579 |
| ACCAGCGG | -0.0794 |
| GTATGCCA | -0.225 |
| ACTTTCCC | 0.152 |
| CTTGTTTA | 0.0423 |
| AACGCGGT | 0.0965 |
| CAATCTTA | -0.06 |
| TCAACGAA | 0.00866 |
| ATGGCCAG | 0.0154 |
| AGCGAAAA | 0.107 |
| AGGTAACT | -0.0845 |

| Sequence | PBM E-score |
| --- | --- |
| CCTCAAGA | -0.0527 |
| AAAGAGAA | 0.0447 |
| CCCTTTCC | -0.117 |
| ACCAACAA | 0.269 |
| ATCAGCCA | -0.0331 |
| TACGGGGA | 0.107 |
| AGGCCATC | -0.00368 |
| AAATGGAC | 0.0323 |
| AGCAGTTC | -0.102 |
| TCAGGTAA | 0.189 |
| CGTTATAA | 0.143 |
| CTTCGCGA | -0.0688 |
| CGCGTAAC | -0.00729 |
| ATTAAAGC | 0.0638 |
| CAGCGCTC | -0.114 |
| TCACTCCA | -0.00159 |
| CGGTCAGA | 0.0408 |
| ATCGCCGA | -0.038 |
| AGTCCCCA | -0.214 |
| AAAAGGGT | 0.0448 |
| TCGGATAA | 0.182 |
| TCTTATAA | 0.201 |
| TACCCGTA | -0.132 |
| CTCCTACC | -0.12 |
| CAGCCTGG | 0.00817 |

| Sequence | PBM E-score |
| --- | --- |
| ATATCGGA | 0.0839 |
| GTACGGAA | 0.141 |
| ATATCCGC | 0.0453 |
| AGTTGTTC | 0.0935 |
| CAAAAAGG | 0.0796 |
| CTAATGTC | 0.00771 |
| AGACTGTG | -0.00808 |
| ACGGGCAT | 0.0722 |
| GCTAGAGC | -0.172 |
| GCAGGGAC | -0.134 |
| GAACGCTA | -0.179 |
| GGGCAAAA | 0.2 |
| GTATAGCA | 0.0325 |
| CCTTCCAA | -0.0208 |
| CATAGGCG | -0.0841 |
| TACACCTA | 0.134 |
| CACAACAC | 0.0823 |
| CAGTCCGG | -0.191 |
| ATTGCTCC | -0.0635 |
| CCCTTTTC | 0.163 |
| AGAATCCC | 0.0724 |
| CTCGGGGC | -0.0396 |
| CTCCATTC | 0.0255 |
| CACAGTAC | 0.0938 |
| CTACGGTC | -0.294 |

| Sequence | PBM E-score |
| --- | --- |
| AAATCATT | -0.0422 |
| AAAGATTT | 0.137 |
| CATTCGCC | -0.00661 |
| CCTGACCG | -0.112 |
| CGTTATCC | 0.00703 |
| CAACTCTG | 0.105 |
| AACAGACC | 0.0369 |
| CTCGGATC | -0.0575 |
| GCATATAC | -0.0634 |
| ACGCGGTA | -0.0724 |
| GTTCAGTA | -0.0836 |
| ACCTAGCC | -0.201 |
| AGGCTGTG | -0.13 |
| AACCCGGA | 0.11 |
| ATGCCATC | 0.00054 |
| CCGGTGCC | -0.186 |
| AGATACTA | -0.147 |
| AGGCCCTA | -0.2 |
| CACTTGGA | 0.108 |
| AGAGTCAC | -0.268 |
| ACTAGTAA | 0.114 |
| CAGGTAGG | -0.123 |
| GAACAGCC | -0.185 |
| ACATTCGG | 0.129 |
| TGACTACA | -0.0181 |

| Sequence | PBM E-score |
| --- | --- |
| AACCATAC | 0.0224 |
| CAACTGCG | -0.196 |
| CTCCCTCC | -0.0337 |
| GAGCAAAA | -0.00217 |
| CACTACGC | -0.207 |
| ATCCAGGA | -0.191 |
| GAGAAAGA | 0.0892 |
| TCTAGGAA | 0.0024 |
| AATATTAT | 0.24 |
| CGTTAACC | -0.0977 |
| CGAAAACC | 0.0575 |
| GACTGAAA | 0.241 |
| AGCCATCA | 0.0611 |
| CTACGTGA | -0.19 |
| CCCAACTA | 0.0883 |
| CCCGAGAG | -0.0799 |
| ATAGCTGC | -0.0579 |
| GCGGGCAA | 0.105 |
| AATTCGCC | 0.0264 |
| CATTCGTC | 0.0844 |
| GGTTGGCA | -0.129 |
| CTAAGTCA | 0.0104 |
| ATTTGCGC | 0.0884 |
| GATCCCAC | -0.0104 |
| AATCTTAG | 0.0994 |

| Sequence | PBM E-score |
| --- | --- |
| AGTGTTAT | 0.01 |
| GTAGATGA | 0.186 |
| TGGATCCA | -0.112 |
| GGCGAAAC | 0.191 |
| AAAGAGGG | -0.15 |
| AGCGCTAC | -0.0647 |
| CTGCCATA | 0.142 |
| AATCTAAC | 0.0293 |
| TAACCATA | 0.139 |
| AGCATATC | -0.0273 |
| GCGTTTGA | 0.0907 |
| AATATTGT | 0.157 |
| ACTACGTA | -0.225 |
| CCCATCTA | -0.0575 |
| ACACCATA | 0.107 |
| ATGATCCA | -0.0872 |
| CCAGCTAG | -0.236 |
| AGAAGAAG | 0.152 |
| CTCAGGCA | 0.00132 |
| ATACCGCA | 0.0493 |
| CTGGTCCA | -0.0563 |
| CCTGTGCC | -0.257 |
| GATAGCGA | 0.00939 |
| CCGGATCA | 0.0914 |
| GTTGGCGA | -0.0745 |

| Sequence | PBM E-score |
| --- | --- |
| AATACGAT | 0.0214 |
| CCGATGCA | -0.0447 |
| ATACGCGA | 0.0137 |
| CAGTCTCG | -0.185 |
| CTCTACTA | 0.0149 |
| ATACAGGG | 0.0509 |
| GAACCTAC | -0.0453 |
| ACATCGGG | 0.0481 |
| ACTTAGTA | 0.0058 |
| CGCGGTCA | 0.0265 |
| ACTTACAG | 0.0476 |
| GTACTAGA | 0.0568 |
| AAGCCTGA | -0.265 |
| CTTGCAAC | 0.083 |
| GCTGACAA | 0.0588 |
| AAAATCCC | 0.157 |
| AGTACGTG | -0.183 |
| GGTGCCCA | -0.108 |
| ATCAACGC | -0.0489 |
| ATACAGAG | -0.0452 |
| GCCGCAAC | 0.159 |
| AGAAAGCA | 0.0992 |
| TGAAAACA | 0.162 |
| AACACAAG | 0.06 |
| GGTAGTAC | -0.0411 |

| Sequence | PBM E-score |
| --- | --- |
| GACATCAA | 0.0551 |
| CTCCCGCA | 0.0227 |
| ACCCACCC | 0.314 |
| ACTTGTGA | -0.00066 |
| AAGGTATG | -0.06 |
| ATTCGAGA | 0.128 |
| AGTCCCTC | -0.18 |
| GGAAGGAA | 0.0976 |
| AGCTAGCC | -0.123 |
| CCTCAACC | -0.198 |
| CTCTCGGC | -0.0334 |
| AAGTGGGA | 0.175 |
| ACTCCGTC | -0.0755 |
| GCCCGAAC | -0.0139 |
| CTGACCCC | -0.329 |
| ACCGTTGA | -0.134 |
| ACCGTACT | 0.036 |
| AATCCTCT | -0.194 |
| CACTTCAG | -0.198 |
